# Measurements from PubChem BioAssay AID504332 (National Center for Advancing Translational Sciences (NCATS), 2011).
# The whole screen tested about 350,000 compounds, of which about 31,000 (8.9%) were called active. This list was built around the results that the source calls inconclusive (neither active nor inactive); the mix of calls is not that of the screen. Calls come from the whole dose curve; as a rule, active = well fitted inhibition curve with a large enough effect; inconclusive = small, poorly fitted or top-dose-only effect; inactive = no such curve, though single readings can be large or run the other way. Where the call is inconclusive, the potency comes from a doubtful curve fit. Some compounds were tested as several samples or in several runs, with calls that do not always agree.
# Biological target: Histone-lysine N-methyltransferase EHMT2 (Homo sapiens) (UniProt Q96KQ7)
# Assay: qHTS Assay for Inhibitors of Histone Lysine Methyltransferase G9a; note: nearly all actives have a fitted effect of over 75% in size
# Conditions: G9a H3K9 monomethylation, AlphaScreen, 2 h; activity, negative = inhibition: at 59 µM (top of the series) unless noted
# Summary of the method: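 Step 1: enzyme (final 20 nM) with compound, 15 min RT. Step 2: substrate peptide 500 nM and SAM 20 uM, 2 h RT. Step 3: anti-H3K9me1 antibody and AlphaScreen beads, 10 min, then plate read.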
# % is set by controls: 0 for no effect and ±100 for the full control effect; potency is the fitted concentration of half-maximal effect; tags give direction and shape of the fitted curve.
# Chain of UniProt Q96KQ7 (Q96KQ7 whole entry, looked up): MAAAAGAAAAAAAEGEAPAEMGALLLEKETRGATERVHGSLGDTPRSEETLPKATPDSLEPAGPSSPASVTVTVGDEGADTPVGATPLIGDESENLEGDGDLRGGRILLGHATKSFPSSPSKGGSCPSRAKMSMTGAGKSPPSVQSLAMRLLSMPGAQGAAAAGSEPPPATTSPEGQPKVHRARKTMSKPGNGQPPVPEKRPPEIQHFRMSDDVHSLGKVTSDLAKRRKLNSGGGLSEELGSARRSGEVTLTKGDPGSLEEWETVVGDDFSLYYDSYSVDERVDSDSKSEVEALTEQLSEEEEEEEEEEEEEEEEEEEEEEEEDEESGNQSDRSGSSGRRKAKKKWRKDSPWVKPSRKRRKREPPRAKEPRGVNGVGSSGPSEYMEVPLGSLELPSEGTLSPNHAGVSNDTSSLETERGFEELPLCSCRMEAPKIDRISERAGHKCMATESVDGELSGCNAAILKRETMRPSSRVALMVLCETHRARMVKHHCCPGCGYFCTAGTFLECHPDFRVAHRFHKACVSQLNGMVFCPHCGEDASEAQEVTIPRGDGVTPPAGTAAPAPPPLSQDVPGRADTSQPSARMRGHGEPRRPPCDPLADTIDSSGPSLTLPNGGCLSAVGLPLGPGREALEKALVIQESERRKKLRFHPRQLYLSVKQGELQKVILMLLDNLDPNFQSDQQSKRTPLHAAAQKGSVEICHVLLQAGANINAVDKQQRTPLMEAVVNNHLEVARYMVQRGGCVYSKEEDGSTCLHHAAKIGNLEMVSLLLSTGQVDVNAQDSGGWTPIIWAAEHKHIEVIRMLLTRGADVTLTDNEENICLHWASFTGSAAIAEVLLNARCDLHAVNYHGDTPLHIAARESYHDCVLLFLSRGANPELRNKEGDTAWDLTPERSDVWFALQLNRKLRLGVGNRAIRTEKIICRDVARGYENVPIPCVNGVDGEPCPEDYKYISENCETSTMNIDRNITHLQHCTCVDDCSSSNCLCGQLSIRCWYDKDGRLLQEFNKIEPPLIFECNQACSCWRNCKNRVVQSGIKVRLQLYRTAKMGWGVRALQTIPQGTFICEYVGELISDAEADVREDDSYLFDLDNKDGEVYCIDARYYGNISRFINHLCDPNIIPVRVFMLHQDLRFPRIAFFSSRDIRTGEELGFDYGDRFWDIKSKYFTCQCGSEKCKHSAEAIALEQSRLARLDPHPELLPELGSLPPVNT
SMILES,Potency,"activity, negative = inhibition"
Cc1ccc(C(=O)Nc2cc(S(=O)(=O)N3CCOCC3)ccc2N2CCCC2)cc1,"inconclusive: 8.91 µM [inhibitor, single point]",–
Cc1nc2sc(C(c3ccco3)N3CCC(Cc4ccccc4)CC3)c(O)n2n1 (configuration not stated),"inconclusive: 39.8 µM [inhibitor, single point]",–
Cc1ccc(S(=O)(=O)N(C)C(=O)NC(=O)NS(=O)(=O)c2ccccc2)cc1,"inconclusive: 70.8 µM [inhibitor, partial curve]",–
CSCC[C@H](NC(=O)C1CCN(S(=O)(=O)c2ccc(C)cc2)CC1)C(=O)NCc1ccco1,"inconclusive: 89.1 µM [inhibitor, single point]",–
CCCCC[C@H](O)/C=C/[C@H]1C=CC(=O)[C@@H]1C/C=C\CCCC(=O)O,active: 35.5 µM,–
Cc1cccc(/C=N/NC(=O)NC23CC4CC(CC(C4)C2)C3)n1,"inconclusive: 89.1 µM [inhibitor, single point]",–
COc1cccc(Cn2c(=O)c(-c3cc(F)cc(F)c3)nc3cnc(N4CCOCC4)nc32)c1,–,inactive: -15.2% [at 0.501 µM]
CCOC(=O)c1cnc2nc(NCc3ccc(OC)c(OC)c3)[nH]n2c1=O,"inconclusive: 25.1 µM [inhibitor, single point]",–
COCCn1c(SCc2nc3sc(C(=O)OC)c(C)c3c(=O)[nH]2)nc2ccccc21,"inconclusive: 63.1 µM [inhibitor, single point]",–
CCOC(=O)/C=C1\SCC(=O)N1CC(=O)Nc1ccc(OC)c(OC)c1,"inconclusive: 5.62 µM [inhibitor, single point]",–
CCOc1ccccc1NC(=O)c1nc[nH]c1C(=O)Nc1ccccc1OCC,active: 12.6 µM,–
COc1ccccc1OCC(=O)Nc1ccc2c(c1)n(C)c(=O)n2C,"inconclusive: 4.47 µM [inhibitor, single point]",–
C=CCn1c(Cc2nc3ccc(Cl)cc3[nH]2)n[nH]c1=S,"inconclusive: 0.355 µM [inhibitor, full curve, poor fit]",–
Cc1c(NC(=S)NC(=O)c2sc3ccccc3c2Cl)cccc1C(=O)O,active: 4.47 µM,–
Cc1nc(SCC(=O)N2CCN(C(=O)c3ccco3)CC2)c2c(C)c(C)sc2n1,inactive,–
CCCCCn1c(N)c(-c2nc3ccccc3s2)c2c([N+](=O)[O-])nn(CC)c(=O)c21,"inconclusive: 8.91 µM [inhibitor, partial curve, poor fit]",–
COc1cc(OC)c2c(C)c(Cl)c(=O)oc2c1,"inconclusive: 20 µM [inhibitor, partial curve, poor fit]",–
O=C(C(Cl)c1ccccc1)N1CCOCC1 (configuration not stated),active: 22.4 µM,–
CCOC(=O)c1c(C)[nH]c(C(=O)N2CCN(CC)CC2)c1C,"inconclusive: 89.1 µM [inhibitor, single point]",–
Nc1ccc(NC(=O)c2ccccc2)c2c1C(=O)c1ccccc1C2=O,"inconclusive: 70.8 µM [inhibitor, single point]",–
CCOc1ccc(C(=O)NCC(=O)NCCOc2ccc(C)cc2)cc1,"inconclusive: 89.1 µM [inhibitor, single point]",–
COc1ccc2c(c1)c1c(c(=O)n(-c3ccc(F)c(Cl)c3)c(=O)n1CC(=O)N1CCCC1)n2C,inactive,–
Cc1ccc(OCC(=O)Nc2ccon2)c([N+](=O)[O-])c1,"inconclusive: 0.398 µM [inhibitor, partial curve, poor fit]",–
CC(=O)N1CCc2cc(C(=O)CN3CCN(C(=O)c4ccco4)CC3)ccc21,active: 12.6 µM,–

SMILES,Potency,"activity, negative = inhibition"
CCc1ccc(NC(=O)CN2CCCN(Cc3cccc(Cl)c3)S2(=O)=O)cc1,inactive,–
Cc1cccc(N2CCN(S(=O)(=O)c3cccc4nonc34)CC2C)c1 (configuration not stated),active: 35.5 µM,–
COC(=O)c1cc2sc(C)cc2n1CC(=O)Nc1ccc(C)c(C)c1,inactive,–
O=[N+]([O-])c1ccc(/C=N/NC(=S)Nc2ccccc2C(F)(F)F)o1,active: 20 µM,–
COc1ccc(CNC2CCCCC2)cc1,"inconclusive: 3.55 µM [inhibitor, single point]",–
CN(C)c1ccc(/C=N/NC(=O)c2ccc(Cn3cc(Br)cn3)o2)cc1,active: 39.8 µM,–
CCOC(=O)C1(Cc2ccc(OC)cc2)CCN(C(=O)c2cc3ccccc3[nH]2)CC1,"inconclusive: 79.4 µM [inhibitor, partial curve]",–
CNc1nc2[nH]c(=O)c3c(c2s1)OC(N)=C(C#N)C3c1ccccc1 (configuration not stated),inactive,–
CN1CCN(c2ccc(CNS(=O)(=O)c3ccccc3)cc2)CC1,"inconclusive: 44.7 µM [inhibitor, partial curve, poor fit]",–
Cc1csc(NC(=O)NCC2CCCC(CNC(=O)Nc3nc(C)cs3)C2)n1 (configuration not stated),active: 14.1 µM,–
O=C(CCl)NNc1cccc(Cl)n1,"inconclusive: 25.1 µM [inhibitor, single point]",–
Cc1nc(Nc2ccccc2O)c2oc3ccccc3c2n1,inactive,–
Cc1ccc(-c2nc3cnccn3c2Nc2ccc3c(c2)OCO3)o1,active: 31.6 µM,–
CCOC(=O)c1[nH]c2ccc(F)cc2c1NC(=O)CN1CCc2cc(OC)c(OC)cc2C1,"inconclusive: 89.1 µM [inhibitor, single point]",–
CCOC(=O)Cc1csc(/C(=N/O)C(N)=O)n1,"inconclusive: 3.16 µM [inhibitor, partial curve, poor fit]",–
COc1ccc(/C=N/NC(=O)c2cccnc2)cc1CSc1ccccn1,"inconclusive: 35.5 µM [inhibitor, partial curve]",–
COc1ccc(C(=O)N2N=C(c3cccc(OC)c3)CC2(O)C(F)(F)F)cc1 (configuration not stated),inactive,–
COc1cc(C(C)=O)ccc1OCCN1CCC(Cc2ccccc2)CC1,"inconclusive: 10 µM [inhibitor, full curve, poor fit]",–
CCOC(=O)c1cc2sc(C)cc2n1CCCN1C(=O)c2ccccc2C1=O,inactive,–
O=C(O)c1ccc(CNCc2ccc(Cl)cc2)s1,inactive,–
COc1ccc(-c2cc(-c3n[nH]c(=S)n3-c3ccccc3OC)[nH]n2)cc1,active: 1.78 µM,–
S=C(NC1CCCCC1)N1CCOCCOCCN(C(=S)NC2CCCCC2)CCOCC1,"inconclusive: 70.8 µM [inhibitor, single point]",–
O=C(O)c1cccc(-c2ccc(/C=N/NC(=O)C3COc4ccccc4O3)o2)c1 (configuration not stated),active: 39.8 µM,–
O=C(NC(=S)Nc1ccccn1)c1cncc(Br)c1,"inconclusive: 1.12 µM [inhibitor, full curve, poor fit]",–

SMILES,Potency,"activity, negative = inhibition"
Cc1nn(Cc2ccc(F)cc2)c(C)c1NC(=O)c1noc2c1CCCCC2,"inconclusive: 39.8 µM [inhibitor, partial curve, poor fit]",–
Cc1noc(NS(=O)(=O)c2ccc(NC(=O)/C=C/c3ccc(Br)cc3)cc2)c1C,"inconclusive: 70.8 µM [inhibitor, single point]",–
CN(C)c1ccc(/C=C2\CCC/C(=C\c3ccccc3)C2=O)cc1,active: 3.55 µM,–
O=S(=O)(O)c1ccc(N=Nc2ccccc2)cc1,"inconclusive: 79.4 µM [inhibitor, partial curve, poor fit]",–
COc1ccc(/C=C/C(=O)c2ccc3c(c2)OCCO3)cc1[N+](=O)[O-],inactive,–
CC1CN(CCC(=O)Nc2ccccc2F)CC(C)O1 (configuration not stated),inactive,–
CCc1c(C)sc(NC(=O)c2ccco2)c1C(=O)N1CCOCC1,–,inconclusive: -81.1% [inhibitor]
CCCOc1ccc(CNCCCOCC)cc1OC,inactive,–
CCOc1cccc(NC(=O)/C(C#N)=C\c2cn(CC(=O)O)c3ccccc23)c1,"inconclusive: 56.2 µM [inhibitor, partial curve, poor fit]",–
CCn1c(SCC(=O)Nc2ccc(OCc3ccccc3)cc2)nnc1-c1ccco1,"inconclusive: 50.1 µM [inhibitor, partial curve, poor fit]",–
O=C(COc1ccccc1Cl)OCc1cc(=O)n2nc(-c3cccs3)sc2n1,inactive,–
CCCOc1ccccc1C1CC(=O)Nc2cc3c(cc21)OCO3 (configuration not stated),–,inconclusive: -92.7% [inhibitor]
Cc1ccc(-c2csc(Nc3ccc(S(N)(=O)=O)cc3)n2)o1,active: 4.47 µM,–
CCOC(=O)c1[nH]c2ccccc2c1NC(=O)c1ccc2c(c1)OCO2,"inconclusive: 79.4 µM [inhibitor, partial curve, poor fit]",–
COc1ccc(OC)c(C2=Nn3c(nnc3-c3ccco3)SC2)c1,"inconclusive: 89.1 µM [inhibitor, single point]",–
C(=N\N1CCN(C(c2ccccc2)c2ccccc2)CC1)/c1ccc2c(c1)OCO2,"inconclusive: 8.91 µM [inhibitor, partial curve, poor fit]",–
CN1CCN/C1=C(/C(Cl)=C(Cl)Cl)[N+](=O)[O-],active: 12.6 µM,–
COc1ccc(CNC(=O)C2=CCN(S(=O)(=O)c3ccc(C)cc3)CC2)cc1,active: 44.7 µM,–
CCOc1ccccc1N(CC(=O)NCCSCc1ccco1)S(=O)(=O)c1ccccc1,"inconclusive: 79.4 µM [inhibitor, single point]",–
Cc1ccccc1NC(=O)C1c2cccc[n+]2CC(=O)N1Cc1ccc2c(c1)OCO2 (configuration not stated),active: 11.2 µM,–
N#Cc1ccsc1NC(=O)CN1CCCCC1,inactive,–
O=C(CNc1cccc2ccccc12)N/N=C/c1cccc(Oc2ccccc2)c1,active: 10 µM,–
Cc1ccc(CN2CCN(C3CCC3)CC2CCO)cc1 (configuration not stated),"inconclusive: 89.1 µM [inhibitor, single point]",–
Cc1c(C)n2c(SCC(=O)NC3CCCC3)nnc2[nH]c1=O,"inconclusive: 50.1 µM [inhibitor, partial curve, poor fit]",–
